B1: OR4K15 (parent)
chain: GUUAACGGUCAUAGGCCAUGGAAACUAGGAGCACCAUUUCGCUGCCAGUGAAGAAAUGAACAAAGAAAAUCUGGGCCAGGCAGGCAUCAAAAGAAAUAGUCUUGCGCUCAACCAGAAAGUCUGUAAUCAUUUUAAGGGUA

The source gives no read counts; variants with many changes may rest on few reads.

The variants in the series derive from B1. Nature of the series: self-cleavage, relative activity (ratio to wild type); higher = more cleavage; in vitro, sequencing; the parent is a self-cleaving ribozyme.
For A23G A27G A52G, the self-cleavage was 1.07.
With A22U U39C C128U U130C the figure was 0.98; with A23G A24G A55G A118G, 0.92.
With A23G A24U A69G A82C U130C the figure was 0.05.
In the case of A22G U100C A135U, the self-cleavage turned out to be 2.63.
Turning to A22G U43A A111G, the self-cleavage was determined as 0.09.
With A22G A36G U43C U131C U139A, the self-cleavage stood at 1.2.
Consider A23G A33U A54G A63G G104A A126G A129G, for which the self-cleavage stood at 0.03.
As for A22G A68G U87C, the self-cleavage is 1.09.
For the variant A23G A54G A60G U70G U122C, the self-cleavage turned out to be 0.42.
Turning to A22G U87C A92G, the self-cleavage came out at 1.13.
Regarding A22G U72C A95G A117G, the self-cleavage stood at 0.31.
With A22G U100C A118G the figure was 1.41.
Regarding A22U A67G U102C, the self-cleavage is 1.47.
Consider A22G U37C A90G, for which the self-cleavage came to 0.53.
With A23C A24G G74A the figure was 0.36; with A22G A86G A96G A116G, 0.24; with A22G U37C C85U U127A, 0.29.
With A22G U49C A62G A64G A86U U87C A94G A96G the figure was 0.18.
The result for A22G U108A A134G reads 0.02; that for A23G A47U A51G A140U, 0.28; that for A22U A129G U133C, 1.86.
Take A23G A54G A114G: the self-cleavage was found to be 0.69.
With A23G A51G A69G A92G U100C, the self-cleavage was found to be 1.39.
The result for A22G A96G U132C reads 0.81; that for A22G C32U U122C, 0.59.
The result for A22G U43C A51G reads 2.1; that for A22G A60G U124C U130C, 0.4.
The result for A22U A24G U57C reads 0.87; that for A23G A47U U127C, 0.02; that for A22U A33U A78G, 0.37.
For the variant A22G U39G A117G, the self-cleavage was determined as 1.42.
With A22G U38C U49C A51G A68G the figure was 1.03.
As to A22U U70C U124A, the self-cleavage worked out at 0.07.
With A23G A51G A111G the figure was 0.06.
For G21U U26C U130A, the self-cleavage worked out at 1.6.
The result for A22G A24G U87C reads 0.93; that for A23G A52U A129G, 0.6; that for A23G A47U A55G A96G A111G G123A, 0.01.
For the variant A22G A33G U38A A111G, the self-cleavage amounted to 0.05.
Take A22C U72A A82U A117G: the self-cleavage was 0.31.
The result for A22G U100C A126C reads 1.5; that for A22G A47G A69G G74U U127C, 0.09.
The result for A22G U26A A60G reads 1.06.
The result for A22G A67G U120C reads 0.56; that for A22U U108C G136A A140G, 0.02.
As for A22G A51G A91G A92G A96G U108C U124C U127C, the self-cleavage turned out to be 0.
Turning to A22G A62C A94G, the self-cleavage amounted to 0.39.
The result for A22G U26C A68G reads 1.23.
Take A23G A24G C25U A33G: the self-cleavage came to 1.17.
With A22U A47G U57C A90G A126G, the self-cleavage worked out at 0.25.
Regarding A22G A47G A96C A117G, the self-cleavage turned out to be 0.49.
In the case of A22G U43C U49C A63G, the self-cleavage is 1.36.
With A22G A63G U132C the figure was 1.32; with A22G A23U A69G A86C C105U A117U, 0.06; with A22U A24G U70C, 1.31.
For the variant A22G A63G A68G U97G A111U, the self-cleavage came to 0.11.
The result for A22U A55G A126G reads 0.57; that for A22G U37C U43A A110G U132C, 0.13.
Take A22U A55G U127C: the self-cleavage worked out at 0.86.
With A22G A94G A116G U127C the figure was 0.32; with A22G A67G A78G A95G U103C U122G U130C, 0.13; with A22U A33G A52G A91G A96G U108C, 0.02.
On to A22G A52C A54U, for which the self-cleavage was determined as 0.88.
The result for A22U A90G A91G reads 0.61; that for A22G G58U G75A U130C, 0.07.
Regarding A22G A33G A90G U102C, the self-cleavage worked out at 1.34.
On to A22G U39C A66G A92G U100C U102C A110G A114C, for which the self-cleavage stood at 0.01.
Take A23G A52G A56U A60G A111G A116G A118G: the self-cleavage amounted to 0.03.
The result for A22G A60G A78G A86G reads 0.11.
A22U A63G U108C U127C: the self-cleavage amounted to 0.01.
In the case of A22G A52G A56U A59G A60G A89G, the self-cleavage was 1.11.
The result for A22U U37C U102C U120C reads 2.26; that for A22U A111U A114U, 0.02.
The result for A22U A55G A60G U100C A118G U122C reads 1.24.
The result for A22U A24G A30G reads 1.19; that for A23G A47U U102C G104A, 0.06; that for A22G U43C A89U U103A U133C, 1.01.
Consider A23G A27G A86G A91G A117G U122C A129G, for which the self-cleavage turned out to be 0.07.
For the variant A22U A33G C88U, the self-cleavage was 1.09.
On to A22U A68G U108C, for which the self-cleavage amounted to 0.
As for A22G A82U A118U, the self-cleavage was found to be 0.04.
Take A23G A24G A64G U124C: the self-cleavage came to 0.97.
With A23C A64G U103C A114C the figure was 0.05; with A22G A30G A54G, 1.02; with A22G A27G A129U, 0.47.
With A22G U43C A69C, the self-cleavage was 1.2.
Turning to A22G U108C A117G, the self-cleavage is 0.
The result for A22G A126U U130C reads 0.92.
On to A22G G83A A116G U131C, for which the self-cleavage was determined as 0.44.
With A23C U43A U131C the figure was 1.28; with A22G A52G C76U, 0.28.
The result for A23G A30U A90U A118G U122C reads 0.75; that for A22G A92G A116G A125G, 0.25.
With A22G A59G A67G, the self-cleavage was 1.32.
With A22G A52G A66U the figure was 1.4.
With A22G A54G A56G A64G U87C A111G the figure was 0.03; with A22U A60G A82G U87C A94G G106A U132C, 0.01; with A23G A47G U97A, 0.99.
With A22U A89G A129U the figure was 0.81; with A22U U57C A116G C121U, 0.48; with A23G A36U A91G, 0.49.
With A22G U57C A114C A118G, the self-cleavage came to 0.04.
With A22G A24G A54G U97C A129G, the self-cleavage was 0.26.
The result for A22U U132C A135G reads 1.91.
With A23G A36G A66G U72C the figure was 0.41.
As for A22U A36G G41A U49A U97A, the self-cleavage is 1.29.
The result for A22G A92G A111G reads 0.04; that for A22G U38A A54G, 1.36.
Regarding A22G A59G A68G A98G A111G, the self-cleavage turned out to be 0.
A22G A96G U103C A117U: the self-cleavage came to 0.64.
A22G A56G A114C: the self-cleavage was 0.02.
The result for A23C U49C A52G A56G reads 2; that for A23G A27U A64C U103A U132C, 0.11; that for A22G A66G U70C U120C A129G, 0.1.
For A22G G53U A95G, the self-cleavage stood at 1.22.
On to A22U A64G G106C, for which the self-cleavage was found to be 0.02.
Regarding A22U A23G U133C, the self-cleavage was determined as 2.27.
The result for A23G A47U U97C U103A reads 0.12.
With A22G A33U A64C A92G A98U the figure was 0.72.
With A22G A24G A36U U37A A82G A111G the figure was 0.09; with A22G U43C A63G A116G A118G U131C, 0.07.
In the case of A22G A33U A36G, the self-cleavage worked out at 0.72.
With A22G A23G A90G the figure was 1.26; with A22G A98G A126C, 0.12; with A23G A33U A62U A68G U130A, 1.28.
The result for A22G A54G A68G A69U U72C reads 0.45.
Consider A22G A47U U57C A69G U131C, for which the self-cleavage stood at 0.6.
As to A23C U49G A51G A56G, the self-cleavage was determined as 0.65.
For the variant A22U A33G A95G U108A U130C, the self-cleavage came out at 0.
Regarding A22U U70C U122C, the self-cleavage came out at 0.75.
Regarding A22G A56G C81U, the self-cleavage turned out to be 0.46.
The result for A22G A52G A86G A96G reads 1.21; that for A22U U57C A118U, 0.22; that for A23G A52G G74A U102A U132A A140U, 0.09.
Turning to A22G U70C U122C, the self-cleavage came out at 1.21.
With A22C A54C U130G the figure was 0.34; with A22G A68G U108A, 0.02; with A22G A82G U87A A92G, 0.16.
A22G C40U A56G: the self-cleavage is 1.19.
With A22G A60U U139C the figure was 1.55.
On to A22G U43A A60G A89G A92U, for which the self-cleavage is 1.07.
The result for A22G A36G U108C reads 0.03; that for A23G A27G A92G C128U, 1.14.
The result for A22G A67G A89G A95G U130C reads 2.08; that for A22G U39C U120A U127C, 0.53.
For the variant A22G U43G A54U, the self-cleavage was determined as 1.47.
The result for A22G A68U U100C reads 2.32; that for A22G A59G A82C, 0.17.
The result for A23G A33U U122A reads 1.43.
With A22G A33C A51G A60G U72A the figure was 0.46; with A22U U37C A82G, 0.19.
For A23G A54G A55G, the self-cleavage was 1.18.
Regarding A22G A27G A64U, the self-cleavage amounted to 0.78.
With A22G A63G G123A U127A the figure was 1.46; with A22G A55G A78G, 0.2; with A22G A52G G136A, 0.95.
With A23G A54G A62G A78G, the self-cleavage was found to be 0.54.
The result for A22G A64G C76U reads 0.19; that for A23G A52G C107U, 0.08.
With A22U A54G G84U the figure was 1.04; with A22G A24G A63U U130C, 0.
The result for A22G A62G A90G A111G reads 0.09; that for A22G U49G A55G U70C A90U U100C U108C, 0.01; that for A22G A24G C81A A89G A111G, 0.05.
For A22G C35U U70C A91G U103C, the self-cleavage worked out at 0.12.
The result for A22G A54G A118U reads 1.37.

Values taken from the RNAGym collection of RNA variant scans (doi:10.7554/elife.90254).
